Measured values published in the RNAGym collection of RNA variant scans (doi:10.1101/gad.245936.114).
Variants at the background level are over-represented here.

B1: tRNA (parent)
chain: CUCUCGGUAGCCAAGUUGGUUUAAGGCGCAAGACUUUAAUUUAUCACUACGAAAUCUUGAGAUCGGGCGUUCGACUCGCCCCCGGGAGAUUUUUUCCUCGAGCAA

Variants of: B1
Assay: nonsense suppression (GFP-seq) (ratio to wild type); higher = more function; SUP4oc tRNA, yeast GFP reporter sort-seq
In short: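 Raffinose/galactose medium with 80 mg/L adenine was used to grow yeast carrying genome-integrated tRNA variants (~3% random-mutation library), RFP, and a galactose-driven GFP ochre reporter. Cells went into GFP/RFP bins, which were Illumina-sequenced, and variants with ≥100 reads and ≥30 cells were scored. Nonsense suppression (GFPSEQ) is the per-bin median GFP/RFP weighted by estimated cell share and expressed relative to the unmutated parent tRNA.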

Row | Variant | nonsense suppression
1 | U22C A23G G65C | ≤ 0.026
2 | U22C A24C C27U A31C U35G U57C G67U | ≤ 0.026
3 | U22C A24C G86A | ≤ 0.026
4 | U22C A24G U35C U71G | ≤ 0.026
5 | U22C A24G U57G U71G | ≤ 0.026
6 | U22C A24U A87C | ≤ 0.026
7 | U22C A24U C29U A30G | 0.0731
8 | U22C A30C G32U C82G | ≤ 0.026
9 | U22C A33C C34A C81A | ≤ 0.026
10 | U22C A33G C81G | ≤ 0.026
11 | U22C A33G G59A | ≤ 0.026
12 | U22C A33G U55G C68A G84U | ≤ 0.026
13 | U22C A33U | 0.202
14 | U22C A60C G61A | 0.176
15 | U22C A87G | 0.724
16 | U22C A87U | ≤ 0.026
17 | U22C C27G | ≤ 0.026
18 | U22C C27U A31C C79U | ≤ 0.026
19 | U22C C29G | ≤ 0.026
20 | U22C C34A U57G U76G G85C | ≤ 0.026
21 | U22C C34G G88A | ≤ 0.026
22 | U22C C68A C77U | ≤ 0.026
23 | U22C C68U | 1.16
24 | U22C C77A | ≤ 0.026

Row | Variant | nonsense suppression
25 | U22C C77U | ≤ 0.026
26 | U22C C79A | ≤ 0.026
27 | U22C G25C | 0.0473
28 | U22C G25C A31G C64G G67A C77A | ≤ 0.026
29 | U22C G25C A62G | ≤ 0.026
30 | U22C G25U G61U | ≤ 0.026
31 | U22C G25U U57G G85C | ≤ 0.026
32 | U22C G26A U57G | ≤ 0.026
33 | U22C G26U | ≤ 0.026
34 | U22C G28A C34U U55G | ≤ 0.026
35 | U22C G28U A31U G86U | ≤ 0.026
36 | U22C G59A | ≤ 0.026
37 | U22C G59A C77G | ≤ 0.026
38 | U22C G59A G88A | ≤ 0.026
39 | U22C G61U U63C | 0.17
40 | U22C G65A G73A | ≤ 0.026
41 | U22C G65C | ≤ 0.026
42 | U22C G66A A87G | ≤ 0.026
43 | U22C G66C C82G | ≤ 0.026
44 | U22C G67A A89C | ≤ 0.026
45 | U22C G69C | ≤ 0.026
46 | U22C G78U C81G | ≤ 0.026
47 | U22C G78U C83U | ≤ 0.026
48 | U22C U35C U70A A87C A89G | ≤ 0.026

Row | Variant | nonsense suppression
49 | U22C U35G U57G G73U G88U | ≤ 0.026
50 | U22C U57A G73U | ≤ 0.026
51 | U22C U58A G61U | ≤ 0.026
52 | U22C U58G | ≤ 0.026
53 | U22C U63C C68U | 0.0629
54 | U22C U70C C80G | ≤ 0.026
55 | U22C U70C G73A | ≤ 0.026
56 | U22G | 0.989
57 | U22G A23C A33C U55A G61A | ≤ 0.026
58 | U22G A23C U71C | ≤ 0.026
59 | U22G A23G C34A | ≤ 0.026
60 | U22G A23U G28C C79G | ≤ 0.026
61 | U22G A24C A31C | ≤ 0.026
62 | U22G A30C | ≤ 0.026
63 | U22G A30C A31U U76G | ≤ 0.026
64 | U22G A30G | 0.781
65 | U22G A31C | ≤ 0.026
66 | U22G A31G A33G G61C C81U | ≤ 0.026
67 | U22G A33C U70C A89C | ≤ 0.026
68 | U22G A54C G66C A87U | ≤ 0.026
69 | U22G A54U G88U | ≤ 0.026
70 | U22G A60C G86C | ≤ 0.026
71 | U22G A60G G66A | ≤ 0.026
72 | U22G A62G C79U | ≤ 0.026

Row | Variant | nonsense suppression
73 | U22G C27G | ≤ 0.026
74 | U22G C29G | ≤ 0.026
75 | U22G C29U | 1.15
76 | U22G C29U A31G | ≤ 0.026
77 | U22G C29U G32A | ≤ 0.026
78 | U22G C29U U57C | ≤ 0.026
79 | U22G C68A G73C | ≤ 0.026
80 | U22G C72G | ≤ 0.026
81 | U22G C75A A87U | ≤ 0.026
82 | U22G C75U | 0.981
83 | U22G C82G | ≤ 0.026
84 | U22G G25A A33G G78A | ≤ 0.026
85 | U22G G25A C34U U70C A74G | ≤ 0.026
86 | U22G G25U G61C G66U | ≤ 0.026
87 | U22G G25U G67A C75G | ≤ 0.026
88 | U22G G25U U55C | ≤ 0.026
89 | U22G G28U A62U G73U | ≤ 0.026
90 | U22G G59C | ≤ 0.026
91 | U22G G65C | ≤ 0.026
92 | U22G G66A U76G | ≤ 0.026
93 | U22G G66C U71C C79U | ≤ 0.026
94 | U22G G67C | ≤ 0.026
95 | U22G G69U | ≤ 0.026
96 | U22G G78U | 0.112

Row | Variant | nonsense suppression
97 | U22G G78U G85A | 0.788
98 | U22G U55A C68U A74G | ≤ 0.026
99 | U22G U55C G65C C80G | ≤ 0.026
100 | U22G U55C G65C C80U | ≤ 0.026
101 | U22G U55C U57A G65A | ≤ 0.026
102 | U22G U57A | ≤ 0.026
103 | U22G U57A A62G G78U | ≤ 0.026
104 | U22G U57C A60C C81U G85U | ≤ 0.026
105 | U22G U57C G61C G86A | ≤ 0.026
106 | U22G U57G | ≤ 0.026
107 | U22G U63A G65U C68A | ≤ 0.026
108 | U22G U70C | ≤ 0.026
109 | U22G U71C | ≤ 0.026
110 | U22G U76A C83A | ≤ 0.026
111 | A23C A24C A31C | ≤ 0.026
112 | A23C A24C U35A | ≤ 0.026
113 | A23C A24G G28A G61U U63G G67A | ≤ 0.026
114 | A23C A31U G66U | ≤ 0.026
115 | A23C A31U U55A G78C | ≤ 0.026
116 | A23C A33C | ≤ 0.026
117 | A23C A33C U55A G61C C83U | ≤ 0.026
118 | A23C A54G | ≤ 0.026
119 | A23C A54G G65A | ≤ 0.026
120 | A23C A54G G78C C81G | ≤ 0.026

Row | Variant | nonsense suppression
121 | A23C A60U G85A | ≤ 0.026
122 | A23C A74G G84A | ≤ 0.026
123 | A23C A89G | ≤ 0.026
124 | A23C C34A | ≤ 0.026
125 | A23C C34U | ≤ 0.026
126 | A23C C34U A87G | ≤ 0.026
127 | A23C C56A | ≤ 0.026
128 | A23C C68U | ≤ 0.026
129 | A23C C68U G84C | ≤ 0.026
130 | A23C C75U G88A | ≤ 0.026
131 | A23C C77G | ≤ 0.026
132 | A23C G26U | ≤ 0.026
133 | A23C G26U G85C | ≤ 0.026
134 | A23C G32A A60U A62U | ≤ 0.026
135 | A23C G32A C75U | ≤ 0.026
136 | A23C G32U | ≤ 0.026
137 | A23C G59U | ≤ 0.026
138 | A23C G61U G69A U70G | ≤ 0.026
139 | A23C G65A | ≤ 0.026
140 | A23C G65A C72U | ≤ 0.026
141 | A23C G66A G86C | ≤ 0.026
142 | A23C G67U | ≤ 0.026
143 | A23C G84A A89U | ≤ 0.026
144 | A23C G86U | ≤ 0.026

Row | Variant | nonsense suppression
145 | A23C U55C | ≤ 0.026
146 | A23C U55C C81G G84A | ≤ 0.026
147 | A23C U55G G86U | ≤ 0.026
148 | A23C U57C | ≤ 0.026
149 | A23C U58A | ≤ 0.026
150 | A23C U63C | ≤ 0.026
151 | A23C U71A | ≤ 0.026
152 | A23C U76G G88A | ≤ 0.026
153 | A23G A24G C27U A62G | ≤ 0.026
154 | A23G A24G C64A G69U C79U | ≤ 0.026
155 | A23G A30C | ≤ 0.026
156 | A23G A30U | 0.0397
157 | A23G A30U C83A | ≤ 0.026
158 | A23G A30U G66U | ≤ 0.026
159 | A23G A31C | ≤ 0.026
160 | A23G A31C A60G | ≤ 0.026
161 | A23G A31C C34G | ≤ 0.026
162 | A23G A33C G66A | ≤ 0.026
163 | A23G A33G | ≤ 0.026
164 | A23G A33G C68U | ≤ 0.026
165 | A23G A33U U35C | ≤ 0.026
166 | A23G A54C C56A C68U | ≤ 0.026
167 | A23G A54G G73A | ≤ 0.026
